The labels stand for the following.
B1: chr2:99394746:99394872:+|CDS|ENSG00000158417|unk|FALSE|unique (ssRNA)
RNA: GGGAGUUCUACAGUCCGACGAUCGAUGUGAGAAUUGAACGAGAUGCACAAGAAAUGGCUGAUAGUUUAGGAGUUAGAAUUUUUAGUGCAGAAAUUAUUUAUCAUUUAUUUGAUGCCUUUACAAAAUAUAGACAAGACUACAAGCAACAGAGGAUUGAGCAUCA
B2: chr2:27243795:27243896:+|3pUTR|ENSG00000084774|unk|total|mutant (ssRNA)
RNA: GGGAGUUCUACAGUCCGACGAUCACUUAAUAAACAGCCGAGCUGUCCCUUGAUGCUGAGUGCCGCCGAACAGAGCUUUCUUUCCGAAAAUUGAGCAGAUUCCCAAAUUAUAAGAGCAGCCUCACCAGGCAGGGCUCUGGCCCGCAACAGAGGAUUGAGCAUCA
B3: chr2:207821287:207828318:-|three_prime_utr|ENSG00000178385|control|control|control (ssRNA)
RNA: GGGAGUUCUACAGUCCGACGAUCACCCGAAGGCCAGGGAUUCACCAAUCAACAAUCCAUCAGCCCCAGAGCGGCCUCCUAACUAGCCAGUUAGACCCCUUUGGAAGAAGAGUAUGUAUCCUCUUCAACUAGAUAUAGAUAUAUCAACAGAGGAUUGAGCAUCA
B4: chr3:62294137:62294238:+|3pUTR|ENSG00000144724|msi1|FALSE|unique (ssRNA)
RNA: GGGAGUUCUACAGUCCGACGAUCUGAGACCCUUUAGUUAUUCUCCAUUAAUGCUUCUUAGUUUGUAAUACCAUACCUCACAGUAGGUAGAAGAAUGAAAACUUCUGCAGGUGUGUAAUUUUGAAACUAGUCCUCUAAAAAUUCCAACAGAGGAUUGAGCAUCA
B5: ENSG00000070961:be:win_3701|3pUTR|ENSG00000070961|bound_else_gene|NA|bound_elsewhere_windowed (ssRNA)
RNA: GGGAGUUCUACAGUCCGACGAUCAGAAACAAAUUGAAACUGGGUCUUUUCACAUAUUGUGAUGGACAAGCUAGUAUUCUUGUCUUUGGACUUCAACAGAAGACACACUUGUACGAAUGUAGAUUUAUUUUUUUAAAAAAAAAACAACAGAGGAUUGAGCAUCA
B6: chr1:9729969:9730061:-|3pUTR|ENSG00000171603|msi1_unk|FALSE|overlapping (ssRNA)
RNA: GGGAGUUCUACAGUCCGACGAUCGUUUUUAUUUUUUCCAAACUAGUGCAUGUAUAAAUAAUGGCAGGAUGGGGGGUACUGUGUAGAUGAUUAACUGACUUUUUAAUAUUUUGUAAAUAAAUCGGAUUCCUUGUGUCCUUUGUGCAACAGAGGAUUGAGCAUCA
B7: chr17:75064992:75065093:+|3pUTR|ENSG00000180901|msi1|total|mutant (ssRNA)
RNA: GGGAGUUCUACAGUCCGACGAUCAGGCGCUUGUCCCUGUCUGCUUUCCUGGGGCAUGCCUGAUCAGCGUGGGCUGGAGCUCCCCGACCAACCCCAGCUUUCUCACCAGGUUCAGCAAGGAGGCCUGGGGGUCAGACACCAAUGCAACAGAGGAUUGAGCAUCA
B8: chr12:68660398:68660499:+|3pUTR|ENSG00000127314|msi1|FALSE|unique (ssRNA)
RNA: GGGAGUUCUACAGUCCGACGAUCUUGAGGUGGCCAAAUGUAAACUAAAAGCCUUAAUUAAAGUGGUGCAAUUUUGUAUAACUUAGCAUCAGUAGUUCAAUAAAUUUGGAUUGCCAUGCAAGGGCUUGCAUUAUAAUUACUUGCCAACAGAGGAUUGAGCAUCA
B9: chr5:136976780:136976881:-|3pUTR|ENSG00000152377|msi1|FALSE|unique (ssRNA)
RNA: GGGAGUUCUACAGUCCGACGAUCCUUAAAUUAGCAUGUUCCAAUCCAGUCGGCAUUGCCUGAAUACAGUAGCAUCAUACCUAUAGUUGGUCUUAGAUAAGAAAUGAACUACUUGAUAUAGCAAAGUCCUUUGGCUUCGUAAAUCAACAGAGGAUUGAGCAUCA
B10: chr8:76866408:76866523:+|3pUTR|ENSG00000091656|unk|total|mutant (ssRNA)
RNA: GGGAGUUCUACAGUCCGACGAUCUAUUCUAUACAUUUUAUGUGAACUUUUUUAAUGUCUUUAAUUUGGAUUUUUUUUUUUUUCCGUAUUUUAACAUUUAUUUUAAUCCUGAAGACACUUUUUUGAUUGUGUUUCGUAAGAGACCAACAGAGGAUUGAGCAUCA
B11: chr1:207898972:207899226:-|CDS|ENSG00000174059|control|control|control (ssRNA)
RNA: GGGAGUUCUACAGUCCGACGAUCACAACCUUGAAGCCUAGCCUGUCACCUGGAAAUGUUUCAGACCUUUCAACCACUAGCACUAGCCUUGCAACAUCUCCCACUAAACCCUAUACAUCAUCUUCUCCUAUCCUAAGUGACAUCCAACAGAGGAUUGAGCAUCA
B12: ENSG00000105953:stop:overlap|stop_codon|ENSG00000105953|stop_codon|NA|stop_codon (ssRNA)
RNA: GGGAGUUCUACAGUCCGACGAUCCGGAGCUGCAGCGCCUCCUGGACACGGCCUUCGACCUGGACGUCUUCAAGAACUUCUCGUAGAUGCUGCCUAGGGUUGCUUGGGCCACUGCCCUCUCCACACCCAUGACUGCCCCUUGCUCAACAGAGGAUUGAGCAUCA
B13: ENSG00000198589:be:win_6051|CDS|ENSG00000198589|bound_else_gene|NA|bound_elsewhere_windowed (ssRNA)
RNA: GGGAGUUCUACAGUCCGACGAUCAGAUGAAGAUAUCCUUGCUAAAGGAAAACAGUCCAUCAGGAGUCAGGCUUUAGGAAAUCAGAACUCAGAAAACGAGAUCCUCCUGGAAGGCGAUGAUGAUACUCUGUCAUCCGUGGAUGACAACAGAGGAUUGAGCAUCA
B14: chr1:32195301:32195402:+|3pUTR|ENSG00000084652|msi1|FALSE|unique (ssRNA)
RNA: GGGAGUUCUACAGUCCGACGAUCUGACCUGGCUGGCAUCUGGCACUUGCAAUUUUGGAUUUUGUGGGUCAGUUUUACGUACAUAGGGCAUUUUGCAAGGCCUUGCAAAUGCAUUUAUACCUGUAAGUGUACAGUGGGCUUGCACAACAGAGGAUUGAGCAUCA
B15: ENSG00000107863:be:win_4851|CDS|ENSG00000107863|bound_else_gene|NA|bound_elsewhere_windowed (ssRNA)
RNA: GGGAGUUCUACAGUCCGACGAUCCGAGGCAGAUGACGAGAGAAGCGAACUCAUCAGUGAAGGGCGGCCUGUGGAAACCGACAGCGAGAGCGAGUUUCCCGUGUUCCCCACAGCCUUGACUUCAGAGAGGCUUUUCCGAGGAAACAACAGAGGAUUGAGCAUCA
B16: ENSG00000124766:be:win_1051|CDS|ENSG00000124766|bound_else_gene|NA|bound_elsewhere_windowed (ssRNA)
RNA: GGGAGUUCUACAGUCCGACGAUCGCCGGCCGCUCGCCCGCCGACCACCGCGGCUACGCCAGCCUGCGCGCCGCCUCGCCCGCCCCGUCCAGCGCGCCCUCGCACGCGUCCUCCUCGGCCUCGUCCCACUCCUCCUCUUCCUCCCAACAGAGGAUUGAGCAUCA
B17: chr3:45835589:45835784:-|CDS|ENSG00000163818|control|control|control (ssRNA)
RNA: GGGAGUUCUACAGUCCGACGAUCGACACCUUCACCAUAGAUGAAGUCUCUGAAGUCCUCAAUGGAUUACAAGCUGUGGUUCAUAGUGAGGUGGAAUCUGAGCUCAUCAACACUGCCUAUACCAAUGUGUUACUUCUGCGACAGCAACAGAGGAUUGAGCAUCA
B18: chr6:125889563:125889680:+|CDS|ENSG00000111912|unk|total|mutant (ssRNA)
RNA: GGGAGUUCUACAGUCCGACGAUCCAAGCAGUCUGGUUCGCCAGAAAGCCGAGCCGAAAACACACUGAACAUACAUGAAGAUUCCGAUAAAGUUAAACUCAUUGAAUAUUACCUGACUAAGAACAAAGAAGGGCCACAGGUAUCCAACAGAGGAUUGAGCAUCA
B19: chr4:168927217:168927233:+|3pUTR|ENSG00000129116|msi1_unk|total|mutant (ssRNA)
RNA: GGGAGUUCUACAGUCCGACGAUCAACCACCCAAAUGACCAAGGCAUAUACCGUAUUUGGAGGAAUCAGGGGUUUGGAAGGAGCCGGGAGGAGAAUGAAGGAAAAUGCAACCAGCAUGAUUACCGUGUGUUCAUUCCGAUAAAACAACAGAGGAUUGAGCAUCA
B20: chr17:142788:147440:-|three_prime_utr|ENSG00000272636|control|control|control (ssRNA)
RNA: GGGAGUUCUACAGUCCGACGAUCGAGACCUCAGCACCUGCCCAGGGGAAGGGGACACGCCCAUCUGGGAGCAAAGACCCUUCUAGAGGCCAGCCCCGGCUGAGAGGACAGGAGUGUGGGGGCGCCUUGGCGGACAGUGGGAACCAACAGAGGAUUGAGCAUCA
B21: ENSG00000136451:be:win_1801|3pUTR|ENSG00000136451|bound_else_gene|NA|bound_elsewhere_windowed (ssRNA)
RNA: GGGAGUUCUACAGUCCGACGAUCGCUUAAACAGGAUAGUAGUUGGCAAGAUGAAAUGCCAGAAUUAAAACCAAUCAUAAGUAGAACCCACUUCAAAAUAAAAAAACAGCAUUACUAUUUCUAAUCCCAAGGAAUCACUUUAUUCAACAGAGGAUUGAGCAUCA
B22: chr15:19964665:19964972:-|CDS|ENSG00000188403|control|control|control (ssRNA)
RNA: GGGAGUUCUACAGUCCGACGAUCAUGCACUGGGUGUGCCAGGCCCAUGCACAAGGGCUUGAGUGGAUGGGAUUGGUGUGCCCUAGUGAUGGCAGCACAAGCUAUGCACAGAAGUUCCAGGGCAGAGUCACCAUAACCAGGGACCAACAGAGGAUUGAGCAUCA

The other results are listed elsewhere or left out.

This test deals with T1, UNK ZnF1-6 (called full-length) (human, UniProt Q9C0B0 30-357).
T1 sequence: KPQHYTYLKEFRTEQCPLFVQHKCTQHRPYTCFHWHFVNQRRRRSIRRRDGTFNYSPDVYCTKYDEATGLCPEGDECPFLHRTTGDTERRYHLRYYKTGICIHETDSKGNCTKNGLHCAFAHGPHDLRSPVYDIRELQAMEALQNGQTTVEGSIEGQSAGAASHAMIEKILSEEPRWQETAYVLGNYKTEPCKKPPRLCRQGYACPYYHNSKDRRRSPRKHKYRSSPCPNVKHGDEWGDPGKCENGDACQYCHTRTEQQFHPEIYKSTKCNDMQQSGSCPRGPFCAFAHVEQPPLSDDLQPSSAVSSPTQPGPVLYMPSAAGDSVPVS
As to the kind of experiment: nsRBNS (natural sequence RNA bind-n-seq); RBNS binding buffer (assumed for nsRBNS): 25 mM Tris pH 7.5, 150 mM KCl, 3 mM MgCl2, 0.01% Triton X-100, 500 ug/ml BSA, 20 U/ml SUPERase-In, 4 C; UNK is unkempt and MSI1 is Musashi-1; names of the RNAs are library labels; protein concentration not given here; high values mean tight binding.
In turn, B1 returned a binding signal of 15.9 enrichment R.
As for B2, the figure is 0.797 enrichment R.
On to B3, for which the binding signal was 3.47 enrichment R.
Consider B4, for which the binding signal is 16.2 enrichment R.
B5 registered a binding signal of 0.968 enrichment R.
B6 had a binding signal of 22 enrichment R.
The value for B7 was 0.68 enrichment R; that for B8 was 0.685 enrichment R; that for B9 was 8.89 enrichment R.
B10 gave a binding signal of 1.98 enrichment R.
As for B11, the figure is 2.45 enrichment R; as for B12, 0.44 enrichment R.
As for B13, the figure is 0.373 enrichment R.
As for B14, the figure is 0.635 enrichment R.
Molecule B15 had a binding signal of 0.655 enrichment R.
B16: the binding signal is 4.38 enrichment R.
The value for B17 was 0.413 enrichment R; that for B18 was 0.574 enrichment R; that for B19 was 0.58 enrichment R.
As to B20, the binding signal is 0.805 enrichment R.
The molecule B21 displayed a binding signal of 2.09 enrichment R.
The molecule B22 displayed a binding signal of 0.962 enrichment R.

These data come from publication PMC12136788.
